# Assay results reported in the supplement of paper PMC8728848.
# The list shows a part of the results.
# Experiments:
# Assay in all cases: glycan array binding signal (z-score within array); higher = stronger binding
# Conditions in all cases: glycan notation: IUPAC condensed, linker removed
# [1] = target: Man(a1-2)Man(a1-3)[Man(a1-2)Man(a1-6)]Man
# Method in brief: (§1)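 Glycan array data were curated from 3228 arrays in the Consortium for Functional Glycomics database and kept only where the protein sequence was available. Glycan names were converted to IUPAC-condensed notation, and columns mapping to the same glycan were averaged. The binding signal is a within-array Z-score, averaged across arrays of the same protein sequence at different concentrations or buffers and across linkers. Negative Z-scores can be read as non-binding.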
# [2] = target: Man(a1-2)Man(a1-3)[Man(a1-2)Man(a1-6)]Man(a1-6)[Man(a1-2)Man(a1-2)Man(a1-3)]Man
# Method in brief: as §1
# [3] = target: Man(a1-2)Man(a1-3)[Man(a1-2)Man(a1-6)]Man(a1-6)[Man(a1-2)Man(a1-2)Man(a1-3)]Man(b1-4)GlcNAc(b1-4)GlcNAc
# Method in brief: as §1
# [4] = target: Man(a1-2)Man(a1-3)[Man(a1-6)]Man(a1-6)[Man(a1-2)Man(a1-3)]Man(b1-4)GlcNAc(b1-4)GlcNAc
# Method in brief: as §1
# [5] = target: Man(a1-2)Man(a1-6)[Man(a1-3)]Man(a1-6)[Man(a1-2)Man(a1-2)Man(a1-3)]Man
# Method in brief: as §1
# [6] = target: Man(a1-2)Man(a1-6)[Man(a1-3)]Man(a1-6)[Man(a1-2)Man(a1-2)Man(a1-3)]Man(b1-4)GlcNAc(b1-4)GlcNAc
# Method in brief: as §1
# [7] = target: Man(a1-3)[Man(a1-6)]Man
# Method in brief: as §1
# [8] = target: Man(a1-3)[Man(a1-6)]Man(a1-6)[Man(a1-2)Man(a1-3)]Man(b1-4)GlcNAc(b1-4)GlcNAc
# Method in brief: as §1
# [9] = target: Man(a1-3)[Man(a1-6)]Man(a1-6)[Man(a1-3)]Man
# Method in brief: as §1
# [10] = target: Man(a1-3)[Man(a1-6)]Man(a1-6)[Man(a1-3)]Man(b1-4)GlcNAc(b1-4)GlcNAc
# Method in brief: as §1
# [11] = target: Man(a1-3)[Man(a1-6)]Man(b1-4)GlcNAc(b1-4)GlcNAc
# Method in brief: as §1
# [12] = target: Man(a1-3)[Man(a1-6)]Man(b1-4)GlcNAc(b1-4)[Fuc(a1-6)]GlcNAc
# Method in brief: as §1
# [13] = target: Man(a1-6)Man
# Method in brief: as §1
# [14] = target: Man(b1-4)GlcNAc
# Method in brief: as §1
# [15] = target: MurNAc(b1-4)GlcNAc
# Method in brief: as §1
# [16] = target: Neu5Ac(a2-3)Gal
# Method in brief: as §1
# [17] = target: Neu5Ac(a2-3)Gal(b1-3)GalNAc
# Method in brief: as §1
# [18] = target: Neu5Ac(a2-3)Gal(b1-3)GalNAc(b1-3)Gal(a1-4)Gal(b1-4)Glc
# Method in brief: as §1
# [19] = target: Neu5Ac(a2-3)Gal(b1-3)GalNAc(b1-4)[Neu5Ac(a2-3)]Gal(b1-4)Glc
# Method in brief: as §1
# [20] = target: Neu5Ac(a2-3)Gal(b1-3)GalNAc(b1-4)[Neu5Ac(a2-8)Neu5Ac(a2-3)]Gal(b1-4)Glc
# Method in brief: as §1
# [21] = target: Neu5Ac(a2-3)Gal(b1-3)GalNAc6S
# Method in brief: as §1
# [22] = target: Neu5Ac(a2-3)Gal(b1-3)GlcNAc
# Method in brief: as §1
# [23] = target: Neu5Ac(a2-3)Gal(b1-3)GlcNAc(b1-2)Man
# Method in brief: as §1
# [24] = target: Neu5Ac(a2-3)Gal(b1-3)GlcNAc(b1-2)Man(a1-3)[GlcNAc(b1-4)][Neu5Ac(a2-3)Gal(b1-3)GlcNAc(b1-2)Man(a1-6)]Man(b1-4)GlcNAc(b1-4)GlcNAc
# Method in brief: as §1
# [25] = target: Neu5Ac(a2-3)Gal(b1-3)GlcNAc(b1-2)Man(a1-3)[Neu5Ac(a2-3)Gal(b1-3)GlcNAc(b1-2)Man(a1-6)]Man(b1-4)GlcNAc(b1-4)GlcNAc
# Method in brief: as §1
# [26] = target: Neu5Ac(a2-3)Gal(b1-3)GlcNAc(b1-3)Gal(b1-3)GlcNAc
# Method in brief: as §1
# [27] = target: Neu5Ac(a2-3)Gal(b1-3)GlcNAc(b1-3)Gal(b1-4)GlcNAc
# Method in brief: as §1
# [28] = target: Neu5Ac(a2-3)Gal(b1-3)GlcNAc(b1-3)GalNAc
# Method in brief: as §1
# [29] = target: Neu5Ac(a2-3)Gal(b1-3)GlcNAc(b1-4)Gal(b1-4)Glc
# Method in brief: as §1
# [30] = target: Neu5Ac(a2-3)Gal(b1-3)GlcNAc(b1-6)GalNAc
# Method in brief: as §1
# [31] = target: Neu5Ac(a2-3)Gal(b1-3)GlcNAc6S
# Method in brief: as §1
# [32] = target: Neu5Ac(a2-3)Gal(b1-3)[Fuc(a1-4)]GlcNAc
# Method in brief: as §1
# [33] = target: Neu5Ac(a2-3)Gal(b1-3)[Fuc(a1-4)]GlcNAc(b1-3)Gal(b1-3)[Fuc(a1-4)]GlcNAc
# Method in brief: as §1
# [34] = target: Neu5Ac(a2-3)Gal(b1-3)[Fuc(a1-4)]GlcNAc(b1-3)Gal(b1-4)[Fuc(a1-3)]GlcNAc
# Method in brief: as §1
# [35] = target: Neu5Ac(a2-3)Gal(b1-3)[GlcNAc(b1-6)]GalNAc
# Method in brief: as §1
# [36] = target: Neu5Ac(a2-3)Gal(b1-3)[Neu5Ac(a2-6)]GalNAc
# Method in brief: as §1
# [37] = target: Neu5Ac(a2-3)Gal(b1-3)[Neu5Ac(a2-6)]GlcNAc(b1-3)[Fuc(a1-3)[Gal(b1-4)]GlcNAc(b1-6)]Gal(b1-4)Glc
# Method in brief: as §1
# [38] = target: Neu5Ac(a2-3)Gal(b1-3)]Neu5Ac(a2-3)Gal(b1-4)]GlcNAc
# Method in brief: as §1
# [39] = target: Neu5Ac(a2-3)Gal(b1-4)Glc
# Method in brief: as §1
# [40] = target: Neu5Ac(a2-3)Gal(b1-4)GlcNAc
# Method in brief: as §1
# [41] = target: Neu5Ac(a2-3)Gal(b1-4)GlcNAc(b1-2)Man
# Method in brief: as §1
# [42] = target: Neu5Ac(a2-3)Gal(b1-4)GlcNAc(b1-2)Man(a1-3)[GlcNAc(b1-4)][Neu5Ac(a2-3)Gal(b1-4)GlcNAc(b1-2)Man(a1-6)]Man(b1-4)GlcNAc(b1-4)GlcNAc
# Method in brief: as §1
# [43] = target: Neu5Ac(a2-3)Gal(b1-4)GlcNAc(b1-2)Man(a1-3)[Neu5Ac(a2-3)Gal(b1-4)GlcNAc(b1-2)Man(a1-6)]Man(b1-4)GlcNAc(b1-4)GlcNAc
# Method in brief: as §1
# [44] = target: Neu5Ac(a2-3)Gal(b1-4)GlcNAc(b1-2)Man(a1-3)[Neu5Ac(a2-3)Gal(b1-4)GlcNAc(b1-2)Man(a1-6)]Man(b1-4)GlcNAc(b1-4)[Fuc(a1-6)]GlcNAc
# Method in brief: as §1
# [45] = target: Neu5Ac(a2-3)Gal(b1-4)GlcNAc(b1-2)Man(a1-3)[Neu5Ac(a2-6)Gal(b1-4)GlcNAc(b1-2)Man(a1-6)]Man(b1-4)GlcNAc(b1-4)GlcNAc
# Method in brief: as §1
binder,measurement,setting,value
PFL (Pseudomonas fluorescens) (protein) MSKYAVANQWGGSSAPWHPGGTWVLGARDNQNVVAIEIKSGDGGKSFTGTMTYAGEGPIGFKAQRTGQNQYNVENQWGGNDAPWHPGGKWVIGGRDNQNVIALSVTSSDGGKNLSGTNTYANEGPIGFRGQIE,glycan array binding signal (z-score),[1],-0.117
same,glycan array binding signal (z-score),[2],-0.112
same,glycan array binding signal (z-score),[3],3.46
same,glycan array binding signal (z-score),[4],9.19
same,glycan array binding signal (z-score),[5],-0.009
same,glycan array binding signal (z-score),[6],11.7
same,glycan array binding signal (z-score),[7],-0.112
same,glycan array binding signal (z-score),[8],13.2
same,glycan array binding signal (z-score),[9],7.17
same,glycan array binding signal (z-score),[10],10.9
same,glycan array binding signal (z-score),[11],-0.097
same,glycan array binding signal (z-score),[12],0.258
same,glycan array binding signal (z-score),[13],-0.113
same,glycan array binding signal (z-score),[14],-0.114
same,glycan array binding signal (z-score),[15],-0.116
same,glycan array binding signal (z-score),[16],-0.119
same,glycan array binding signal (z-score),[17],-0.114
same,glycan array binding signal (z-score),[18],-0.116
same,glycan array binding signal (z-score),[19],-0.115
same,glycan array binding signal (z-score),[20],-0.108
same,glycan array binding signal (z-score),[21],-0.114
same,glycan array binding signal (z-score),[22],-0.117
same,glycan array binding signal (z-score),[23],-0.036
same,glycan array binding signal (z-score),[24],-0.071
same,glycan array binding signal (z-score),[25],-0.106
same,glycan array binding signal (z-score),[26],-0.115
same,glycan array binding signal (z-score),[27],-0.114
same,glycan array binding signal (z-score),[28],-0.107
same,glycan array binding signal (z-score),[29],-0.108
same,glycan array binding signal (z-score),[30],-0.112
same,glycan array binding signal (z-score),[31],-0.109
same,glycan array binding signal (z-score),[32],-0.12
same,glycan array binding signal (z-score),[33],0.044
same,glycan array binding signal (z-score),[34],-0.04
same,glycan array binding signal (z-score),[35],-0.113
same,glycan array binding signal (z-score),[36],-0.069
same,glycan array binding signal (z-score),[37],-0.109
same,glycan array binding signal (z-score),[38],-0.111
same,glycan array binding signal (z-score),[39],-0.112
same,glycan array binding signal (z-score),[40],-0.118
same,glycan array binding signal (z-score),[41],-0.099
same,glycan array binding signal (z-score),[42],-0.117
same,glycan array binding signal (z-score),[43],-0.111
same,glycan array binding signal (z-score),[44],-0.108
same,glycan array binding signal (z-score),[45],-0.117
